{"source": "a collection of fitness landscapes (doi:10.1126/science.1257360)", "parents": {"B1": {"name": "PhoQ; a variant is named by its letters at X, in order, P23837 (parent)", "chain": "MKKLLRLFFPLSLRVRFLLATAAVVLVLSLAYGMVALIGYSVSFDKTTFRLLRGESNLFYTLAKWENNKLHVELPENIDKQSPTMTLIYDENGQLLWAQRDVPWLMKMIQPDWLKSNGFHEIEADVNDTSLLLSGDHSIQQQLQEVREDDDDAEMTHSVAVNVYPATSRMPKLTIVVVDTIPVELKSSYMVWSWFIYVLSANLLLVIPLLWVAAWWSLRPIEALAKEVRELEEHNRELLNPATTRELTSLVRNLNRLLKSERERYDKYRTTLTDLTHSLKTPLXXLQXXLRSLRSEKMSVSDAEPVMLEQISRISQQIGYYLHRASMRGGTLLSRELHPVAPLLDNLTSALNKVYQRKGVNISLDISPEISFVGEQNDFVEVMGNVLDNACKYCLEFVEISARQTDEHLYIVVEDDGPGIPLSKREVIFDRGQRVDTLRPGQGVGLAVAREITEQYEGKIVAGESMLGGARMEVIFGRQHSAPKDE"}}, "note": "This is one part of the list.", "data": [{"variants_of": "B1", "assay": "enrichment ratio after two sorts for PhoP signalling (ratio (wild type AVST 3.29)); higher = more functional", "conditions": "with PhoP (E. coli)", "values": [{"variant": "PEEP", "enrichment ratio": "≤ 0.25"}, {"variant": "SRVI", "enrichment ratio": 4.38}, {"variant": "LRET", "enrichment ratio": "≤ 0.25"}, {"variant": "LFSW", "enrichment ratio": "≤ 0.25"}, {"variant": "GYAM", "enrichment ratio": "≤ 0.25"}, {"variant": "PDDV", "enrichment ratio": "≤ 0.25"}, {"variant": "GEDH", "enrichment ratio": "≤ 0.25"}, {"variant": "GAML", "enrichment ratio": 8.92}, {"variant": "FTGM", "enrichment ratio": "≤ 0.25"}, {"variant": "FEYP", "enrichment ratio": "≤ 0.25"}, {"variant": "RTPI", "enrichment ratio": "≤ 0.25"}, {"variant": "PRMI", "enrichment ratio": "≤ 0.25"}, {"variant": "LQEF", "enrichment ratio": "≤ 0.25"}, {"variant": "GNAA", "enrichment ratio": "≤ 0.25"}, {"variant": "FFTM", "enrichment ratio": "≤ 0.25"}, {"variant": "VLNW", "enrichment ratio": "≤ 0.25"}, {"variant": "MIWE", "enrichment ratio": "≤ 0.25"}, {"variant": "PTVS", "enrichment ratio": "≤ 0.25"}, {"variant": "CQQT", "enrichment ratio": "≤ 0.25"}, {"variant": "TWWN", "enrichment ratio": "≤ 0.25"}, {"variant": "GFGE", "enrichment ratio": "≤ 0.25"}, {"variant": "EAKH", "enrichment ratio": "≤ 0.25"}, {"variant": "LRIV", "enrichment ratio": "≤ 0.25"}, {"variant": "DLFG", "enrichment ratio": "≤ 0.25"}, {"variant": "LCPK", "enrichment ratio": "≤ 0.25"}, {"variant": "GNLW", "enrichment ratio": "≤ 0.25"}, {"variant": "ISIC", "enrichment ratio": "≤ 0.25"}, {"variant": "HAPR", "enrichment ratio": "≤ 0.25"}, {"variant": "SASY", "enrichment ratio": 5}, {"variant": "HLLC", "enrichment ratio": "≤ 0.25"}, {"variant": "ETTS", "enrichment ratio": "≤ 0.25"}, {"variant": "TCLD", "enrichment ratio": "≤ 0.25"}, {"variant": "LPPC", "enrichment ratio": "≤ 0.25"}, {"variant": "SLEP", "enrichment ratio": "≤ 0.25"}, {"variant": "WRME", "enrichment ratio": "≤ 0.25"}, {"variant": "QHPS", "enrichment ratio": "≤ 0.25"}, {"variant": "MHWH", "enrichment ratio": "≤ 0.25"}, {"variant": "RRGY", "enrichment ratio": "≤ 0.25"}, {"variant": "GGDK", "enrichment ratio": "≤ 0.25"}, {"variant": "HDKQ", "enrichment ratio": "≤ 0.25"}, {"variant": "DRPQ", "enrichment ratio": "≤ 0.25"}, {"variant": "SLVK", "enrichment ratio": 1.38}, {"variant": "RKKY", "enrichment ratio": "≤ 0.25"}, {"variant": "TFCD", "enrichment ratio": "≤ 0.25"}, {"variant": "NPQV", "enrichment ratio": "≤ 0.25"}, {"variant": "RTGR", "enrichment ratio": "≤ 0.25"}, {"variant": "EMRG", "enrichment ratio": "≤ 0.25"}, {"variant": "VDAC", "enrichment ratio": "≤ 0.25"}, {"variant": "AITK", "enrichment ratio": 3.04}, {"variant": "FDYD", "enrichment ratio": "≤ 0.25"}, {"variant": "KEYT", "enrichment ratio": "≤ 0.25"}, {"variant": "PDHM", "enrichment ratio": "≤ 0.25"}, {"variant": "EGFQ", "enrichment ratio": "≤ 0.25"}, {"variant": "DPAA", "enrichment ratio": "≤ 0.25"}, {"variant": "NQAN", "enrichment ratio": "≤ 0.25"}, {"variant": "MTRS", "enrichment ratio": "≤ 0.25"}, {"variant": "YGRV", "enrichment ratio": "≤ 0.25"}, {"variant": "YNYH", "enrichment ratio": "≤ 0.25"}, {"variant": "VMMW", "enrichment ratio": "≤ 0.25"}, {"variant": "RPNA", "enrichment ratio": "≤ 0.25"}, {"variant": "PPVF", "enrichment ratio": "≤ 0.25"}, {"variant": "WFTN", "enrichment ratio": "≤ 0.25"}, {"variant": "STGI", "enrichment ratio": 4.79}, {"variant": "TAWK", "enrichment ratio": "≤ 0.25"}, {"variant": "LWMG", "enrichment ratio": "≤ 0.25"}, {"variant": "RSYC", "enrichment ratio": "≤ 0.25"}, {"variant": "RETA", "enrichment ratio": "≤ 0.25"}, {"variant": "SFKF", "enrichment ratio": "≤ 0.25"}, {"variant": "GMLC", "enrichment ratio": "≤ 0.25"}, {"variant": "HRFA", "enrichment ratio": "≤ 0.25"}, {"variant": "MHSA", "enrichment ratio": "≤ 0.25"}, {"variant": "MNSV", "enrichment ratio": 16.9}, {"variant": "LDWL", "enrichment ratio": "≤ 0.25"}, {"variant": "RYYY", "enrichment ratio": "≤ 0.25"}, {"variant": "LMTC", "enrichment ratio": "≤ 0.25"}, {"variant": "RRGL", "enrichment ratio": "≤ 0.25"}, {"variant": "TCAL", "enrichment ratio": 11.1}]}]}
